Results taken from PubChem BioAssay AID624296 (National Center for Advancing Translational Sciences (NCATS), 2012).
Among all 350,000 compounds or so, about 9,900 (2.8%) were called active. Inconclusive means that the source gave no clear call. Such entries were picked first, then a sample of the others. Calls come from the whole dose curve; as a rule, active = well fitted activation curve with a large enough effect; inconclusive = small, poorly fitted or top-dose-only effect; inactive = no such curve, though single readings can be large or run the other way. Potencies of inconclusive entries are left out as doubtful fits.

experiment: A quantitative high throughput screen for small molecules that induce DNA re-replication in MCF 10a normal breast cells.; note: nearly all actives have a fitted effect of over 50% in size; for activity, positive = re-replication: % of control where 0% means no effect; conditions: MCF 10A DNA re-replication, Hoechst nuclear intensity, 48 h; activity, positive = re-replication: at 46.1 µM (top of the series)
Potency is the fitted concentration of half-maximal effect; tags give direction and shape of the fitted curve.

| Structure (SMILES) | Potency | activity, positive = re-replication |
| --- | --- | --- |
| CC(C)NC(=O)CSc1nnc(-c2ccc(F)cc2)c2ccccc12 | inconclusive [activator, partial curve, poor fit] | – |
| CC1=C(C(=O)O)N2C(=O)[C@@H](NC(=O)[C@H](N)c3ccc(O)cc3)[C@H]2SC1 | inconclusive [activator, full curve, poor fit] | – |
| CCCCN(C(=O)CSCC(=O)Nc1ccc(C)cc1)c1c(N)n(CC(C)C)c(=O)[nH]c1=O | – | inactive: -3.71% |
| O=C(Nc1ncc(Cc2ccccc2Cl)s1)c1ccc([N+](=O)[O-])cc1 | inconclusive [activator, full curve, poor fit] | – |
| COCc1c(C(=O)OC)nnn1-c1ccc(C(F)(F)F)cc1[N+](=O)[O-] | – | inactive: -0.495% |
| COC(=O)c1ccc(/C=C/c2ccc3cccc(OC(C)=O)c3n2)cc1 | inconclusive [activator, single point] | – |
| Cc1cc(=O)oc(C)c1C(=O)N1CCCc2ccccc21 | inconclusive [activator, partial curve, poor fit] | – |
| CCOC(=O)N1CCN(c2c(NCc3cccs3)c(=O)c2=O)CC1 | active: 18.4 µM | – |
| COc1cc(NC(=O)c2cc([N+](=O)[O-])ccc2Br)ccc1NC(=O)c1ccco1 | inconclusive [activator, single point] | – |
| CCC(C)NS(=O)(=O)c1ccc(S(=O)(=O)N2CCCC3(CCCCC3)C2)cc1 (configuration not stated) | inconclusive [activator, partial curve, poor fit] | – |
| Fc1ccc(CNC2CCN(Cc3ccccc3)CC2)cc1 | – | inactive: -7.14% |
| CCCCNC(=S)NNC(=O)c1csc(C)c1CC | – | inactive: 9.84% |
| COc1ccc(CN2CCN(c3nc4ccccc4s3)CC2)cc1 | – | inactive: 11.2% |
| CNC(=O)COC(=O)/C=C/c1nc2ccccc2s1 | active: 0.651 µM | – |
| COc1cccc(-c2ccc(NC(=O)C3CCCN(Cc4cnc(N(C)C)s4)C3)cc2)c1 (configuration not stated) | inconclusive [activator, single point] | – |
| O=C(COc1ccc2c(c1)oc(=O)c1ccccc12)N[C@@H](Cc1c[nH]c2ccccc12)C(=O)O | inconclusive [activator, full curve, poor fit] | – |
| CCOc1ccc(NS(=O)(=O)c2ccc(C(=O)NCC(c3ccccc3OC)N3CCCC3)cc2)cc1 (configuration not stated) | inconclusive [activator, single point] | – |
| COC(=O)c1ccc(/C=C(\C#N)C(=O)NC(C)c2ccccc2)cc1 (configuration not stated) | active: 18.4 µM | – |
| CC1=C(C)SC(=C(C#N)c2nnc(N3CCOCC3)n2-c2ccccc2)S1 | – | inactive: -0.142% |
| COc1cc(-c2cc(O)c(-c3ccc4ccccc4n3)c(=O)[nH]2)cc(OC)c1OC | active: 11.6 µM | – |
| COc1ccc(N2C(=O)CSC23C(=O)Nc2ccccc23)cc1OC (configuration not stated) | inconclusive [activator, single point] | – |
| CC(C)Cc1ccc(C(C)/C=C2/CCC(CN3CCCCC3)C2=O)cc1 (configuration not stated) | active: 14.6 µM | – |
| Cn1cc(S(=O)(=O)Nc2cccc3ccccc23)c(=O)n(C)c1=O | – | inactive: -4.95% |
| COc1ccccc1/C=C/C(=O)c1ccccc1 | active: 25.9 µM | – |

| Structure (SMILES) | Potency | activity, positive = re-replication |
| --- | --- | --- |
| O=C(O)c1ccc(-c2nnc(-c3cccc(Br)c3)o2)cc1 | inconclusive [activator, single point] | – |
| O=C1C(Cl)=C(NCCCN2CCOCC2)C(=O)c2ccccc21 | inconclusive [activator, single point] | – |
| Cc1cccc(OCc2nnc(SCC(=O)N3CC(=O)Nc4ccccc43)o2)c1 | inconclusive [activator, partial curve, poor fit] | – |
| CC1CCN(c2nc(N(C)c3ccccc3)nc(N)c2[N+](=O)[O-])CC1 | inconclusive [activator, single point] | – |
| COc1cc(C)c(NC(=S)Nc2ccc(Cl)c(Cl)c2)cc1OC | inconclusive [activator, single point] | – |
| O=C(COC(=O)c1ccccc1C(=O)c1ccc(Cl)c([N+](=O)[O-])c1)NC1CCCCCC1 | active: 2.59 µM | – |
| CCCCN1C(=O)C2(NNc3ccccc3O2)c2ccccc21 (configuration not stated) | inconclusive [activator, single point] | – |
| Cc1cc(C(=O)COc2cccnc2[N+](=O)[O-])c(C)n1Cc1ccco1 | inconclusive [activator, partial curve, poor fit] | – |
| COc1ccc(CC(=O)OCC(=O)N2CCCC(C)C2)cc1 (configuration not stated) | – | inactive: -0.947% |
| COc1cccc2cc(C(=O)Nc3ccc(S(=O)(=O)NCC4CCCO4)cc3)c(=O)oc12 (configuration not stated) | inconclusive [activator, single point] | – |
| COc1ccc(CCSc2nnc(C3CCCCC3)n2N)cc1 | – | inactive: 12.4% |
| O=C(COC(=O)C1=COCCO1)Nc1ccc([N+](=O)[O-])cc1C(F)(F)F | – | inactive: -5.44% |
| CC(=O)c1sc(NC(=O)c2cccnc2Cl)nc1C | inconclusive [activator, partial curve] | – |
| C=CCNC(=O)CSc1nc2sc3c(c2c(=O)n1CCCOC)CCC3 | active: 6.51 µM | – |
| CCCCN(C)CCNC(=O)c1cc2c(-c3cccc(OC)c3)nn(C)c2s1 | inconclusive [activator, single point] | – |
| CC(C)NCC(O)COC1CCC(C(C)(C)C)CC1 (configuration not stated) | – | inactive: 24% |
| CCN(CC)CCCN(Cc1cc2cc3c(cc2[nH]c1=O)OCO3)C(=S)Nc1ccccc1 | inconclusive [activator, partial curve, poor fit] | – |
| CC(=O)Nc1cccc(NC(=O)c2cc(-c3cccnc3)nc3ccc(Cl)cc23)c1 | inconclusive [activator, single point] | – |
| CCOC(=O)C(=Cc1ccc(-n2cncn2)cc1)C(=O)OCC | active: 4.61 µM | – |
| CCOc1ccc(NC(=S)NCCCN2CCOCC2)cc1 | – | inactive: 2.65% |
| O=C(NCCc1nc2ccccc2[nH]1)c1ccc(F)cc1 | – | inactive: 1% |
| Cc1c(-c2cc(Br)ccc2O)nc2cc3c(cc2c1C)OCO3 | inconclusive [activator, single point] | – |
| COc1cccc(NC(=O)CN(C)C(=O)c2cc(-c3cccc(Br)c3)nc3ccccc23)c1 | active: 13 µM | – |
| O=C(Oc1ccc(OC(=O)C2CCC2)cc1)C1CCC1 | inconclusive [activator, partial curve, poor fit] | – |

| Structure (SMILES) | Potency | activity, positive = re-replication |
| --- | --- | --- |
| CCOC(=O)[C@@H]1[C@H]2COc3cc(OC)ccc3[C@H]2N2C(=O)N(c3ccc(C(F)(F)F)cc3)C(=O)[C@@]12C | inconclusive [activator, full curve] | – |
| CCOc1ccc(/C=N/NC(=O)c2cc3c(OC)cccc3[nH]2)cc1 | inconclusive [activator, single point] | – |
| O=C(CN(Cc1cccs1)C(=O)CSc1nnc(COc2ccccc2)o1)NC1CCCC1 | active: 10.3 µM | – |
| Cn1ncc(Br)c1NC(=O)c1ccco1 | – | inactive: -9.84% |
| COc1ccc(/C(C)=N/OCC(=O)Nc2nc3ccccc3s2)cc1OC | inconclusive [activator, partial curve, poor fit] | – |
| Cc1ccc2nc(C)cc(C(=O)OCC(=O)c3ccc(Cl)c([N+](=O)[O-])c3)c2c1 | inconclusive [activator, single point] | – |
| CN(C)CCSc1nc(N)c2c3c(sc2n1)COC(C)(C)C3 | inconclusive [activator, full curve, poor fit] | – |
| CCOc1ccc(CNC2CCCc3ccccc32)cc1 (configuration not stated) | inconclusive [activator, partial curve, poor fit] | – |
| COc1ccc(Cn2cc(F)c(=O)n(CCC(C)C)c2=O)cc1[N+](=O)[O-] | – | inactive: 2.06% |
| CC(=O)c1ccc(OCC(O)CN2CCN(CC(O)COc3ccc(C(C)=O)cc3)CC2)cc1 (configuration not stated) | – | inactive: 0.82% |
| CC1=NN(c2ccccc2)C(=O)C1C(=O)c1ccccc1 (configuration not stated) | inconclusive [activator, single point] | – |
| CCC(=Nc1ccccc1O)C1=C(O)CC(c2ccccc2)CC1=O (configuration not stated) | inconclusive [activator, single point] | – |
| CC12CCC(=O)N1C(C(=O)Nc1cc(C(F)(F)F)ccc1N1CCCCC1)CS2 (configuration not stated) | inconclusive [activator, single point] | – |
| COc1ccc(CC(=O)OC(C)CN2CCCCC2)cc1 (configuration not stated) | inconclusive [activator, partial curve, poor fit] | – |
| Cc1cc2c(c(C)nn2-c2ccccc2)c(=O)o1 | inconclusive [activator, full curve, poor fit] | – |
| CCCCN(C)C(=O)CCC(=O)Nc1ccc2nc(N3CCN(C)CC3)cc(C)c2c1 | inconclusive [activator, full curve, poor fit] | – |
| COc1ccc(CC(=O)Nc2nc(C)cs2)cc1OC | – | inactive: 18.8% |
| CCc1nnc(N/N=C/c2cc(Br)c(O)cc2O)n1N | – | inactive: 2.88% |
| COc1ccccc1NC(=O)CN1CCN(c2ccccc2OC)CC1 | – | inactive: 0.539% |
| CCN1CCN(S(=O)(=O)c2ccc(Cl)c(C(=O)NC3CCCCC3)c2)CC1 | – | inactive: 1.55% |
| COc1ccc(CC(NC(C)=O)C(=O)NC2CCN(c3nc(C)cc(C)c3C#N)CC2)cc1OC (configuration not stated) | active: 0.58 µM | – |
| COc1ccc(/C=C/c2noc(-c3ccccc3O)n2)cc1 | – | inactive: -7.03% |
| Cc1ccc(OC(C)C(=O)OCC(=O)Nc2sccc2C(N)=O)cc1 (configuration not stated) | – | inconclusive: 69.5% [activator] |
| CC(=O)N1CCN(c2ccc(Oc3ccc([N+](=O)[O-])c(C(F)(F)F)c3)cc2)CC1 | inconclusive [activator, single point] | – |
